# In PubChem BioAssay AID2546 (National Center for Advancing Translational Sciences (NCATS), 2010):
# Among all 310,000 compounds or so, about 11,000 (3.5%) were called active. The shares of active, inactive and inconclusive entries below differ from those in the screen. The call rests on the fitted dose curve; in most records, active means well fitted inhibition curve with a large enough effect; inconclusive means small, poorly fitted or top-dose-only effect, or effect the other way; inactive means flat fitted curve, though single readings scatter. Potencies of inconclusive entries are left out as doubtful fits.
# Assay: VP16 counterscreen qHTS for inhibitors of ROR gamma transcriptional activity;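 further: Gal4-VP16 expression switched on by copper sulfate through the metallothionein promoter; nearly all actives have a fitted effect of over 50% in size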
# Conditions: Drosophila S2 Gal4-VP16 UAS-luciferase, luminescence, 20 h; activity, negative = inhibition: at 53.6 µM (top of the series)
# On the % scale 0 is the no-effect control and ±100 the full control effect; potency means the concentration at half of the fitted maximal effect; tags describe the fitted curve by direction and shape.
Structure (SMILES),Potency,"activity, negative = inhibition"
COc1cc2[nH]c(=S)nc(NCc3ccccc3)c2cc1OC,"inconclusive [inhibitor, single point]",
CN(C)c1ccc(N=Nc2cccc(F)c2)cc1,"inconclusive [inhibitor, partial curve]",
Cc1ccc(S(=O)(=O)Nc2ccncc2)c(C)c1N(C)S(=O)(=O)c1ccc(Cl)cc1,,inactive: -2.52%
Cc1ccccc1C(=O)Oc1ccc(-c2csnn2)cc1,,inactive: 29.2%
Cc1nc2ccccc2cc1C(=O)NCc1ccc(F)cc1,"inconclusive [inhibitor, single point]",
CCCN(CC(=O)Nc1ccc(F)c(F)c1F)CC(=O)Nc1c(Cl)cccc1Cl,,inactive: -19.5%
Cc1ccc(C(=O)NC(=S)Nc2ccccc2C(F)(F)F)cc1,"inconclusive [inhibitor, single point]",
CCOc1ccccc1Nc1ncnc2ccc(Br)cc12,,inactive: -6.95%
Cn1c(=NC(=O)COc2ccccc2)sc2cccc(F)c21,"inconclusive [activator, single point]",
O=C1CC(c2ccccc2)CC(O)=C1C=Nc1ccccc1 (stereo not given),,inactive: 5.17%
C=CCn1c(SCc2c(C)noc2C)nc2ccccc2c1=O,,inactive: 12.2%
S=C(NC1CCCCC1)N1CCN(Cc2ccccc2Cl)CC1,"inconclusive [inhibitor, single point]",
COc1ccc(N2CCN(c3ccc(N4C(=O)CC(C)C4=O)cc3[N+](=O)[O-])CC2)cc1 (stereo not given),"inconclusive [inhibitor, single point]",
CCOC(=O)C(C(=O)OCC)C1N=C(N)N=C2Oc3ccccc3N21 (stereo not given),"inconclusive [inhibitor, single point]",
Cc1ccc2c(c1)N(S(=O)(=O)c1ccc(CN3C(=O)c4cccnc4C3=O)cc1)CCO2,,inactive: -15.3%
O=C(CCN1C(=O)/C(=C/c2ccccc2)SC1=S)N1CCCCCC1,"inconclusive [inhibitor, partial curve]",
O=C(Nc1ccc(Cn2cccn2)cc1)c1ccc(COc2ccccc2Br)cc1,"inconclusive [inhibitor, single point]",
O=[N+]([O-])c1ccc2sc(SCc3nc4ccccn4c3Br)nc2c1,,inactive: 22.3%
COCCSc1ccccc1C(=O)NCC1CCCO1 (stereo not given),"inconclusive [inhibitor, single point]",
CCOC(=O)c1cnc(-c2ccccc2)nc1-c1ccccc1,,inactive: 1.03%
CN(c1ccc(C(=O)NCCc2ccccc2)cc1)S(C)(=O)=O,"inconclusive [inhibitor, single point]",
Cc1cc(C(=O)N/N=C/C=C/c2ccccc2)n[nH]1,,inactive: -1.22%
O=C(Nc1sc2c(c1C(=O)O)CCCCC2)c1ccccc1,"inconclusive [inhibitor, single point]",
Cc1cccc(N2CCN(C(=O)COc3ccc4c(c3)CCC4)CC2)c1C,"inconclusive [inhibitor, single point]",
O=C(c1ccc(Cl)cc1)c1coc2ccc(O)cc12,"inconclusive [inhibitor, single point]",

Structure (SMILES),Potency,"activity, negative = inhibition"
CCOC(=O)c1c(CSc2ccccc2)n(C)c2cc(Br)c(OC)c(O)c12,"inconclusive [inhibitor, single point]",
COc1ccc(Cn2c(C)nc3c(c(=O)c4ccccc4n3C)c2=O)cc1,,inactive: 3.65%
Cc1nnc(N2C(=O)C(O)=C(C(=O)c3ccco3)C2c2ccc(C(C)C)cc2)s1 (stereo not given),"inconclusive [activator, single point]",
COc1ccccc1OCC(=O)N/N=C/c1cccc2cccnc12,"inconclusive [inhibitor, single point]",
COc1ccc2oc3ccccc3c(=O)c2c1,,inactive: -19.2%
CCOc1ccc(OCc2cccc(C(=O)N3CCOCC3)c2)cc1,,inactive: -25.9%
Cc1noc(C)c1-c1cc(NCCN2CCOCC2)ncn1,"inconclusive [activator, full curve]",
N=c1c(S(=O)(=O)c2ccc(F)cc2)cc2c(=O)n3ccccc3nc2n1CC1CCCO1 (stereo not given),,inactive: 17.1%
CCN(Cc1ccccc1)C(=O)CSc1nncn1C,,inactive: -1.11%
CC(C)Nc1ccccc1,,inactive: -6.65%
Cc1ccc(S(=O)(=O)N2CCCCC2)cc1NC(=O)COC(=O)Cc1cccc(C(F)(F)F)c1,"inconclusive [inhibitor, single point]",
O=C(NCc1ccccc1F)c1ccc2c(c1)OCCO2,"inconclusive [activator, single point]",
C/C(=N\NC(=S)NC(C)C)c1ccc(Cl)c([N+](=O)[O-])c1,"inconclusive [inhibitor, single point]",
O=C(CCNC(=O)Cn1ccc2ccccc2c1=O)NCc1ccccn1,,inactive: -7.75%
O=C(CNC(=S)NC(=O)c1ccccc1)c1ccccc1,"inconclusive [inhibitor, single point]",
Cc1nc(N2CCN(S(=O)(=O)c3ccccc3C#N)CC2)c2c(-c3cccs3)csc2n1,,inactive: -19.7%
CCOC(=O)c1c(-c2ccc(C)s2)csc1N,"inconclusive [inhibitor, single point]",
c1ccc(CN2CCN(CCN3CCn4c3nc3ccccc34)CC2)cc1,,inactive: -0.941%
O=C(O)c1ccc(N/N=C/c2cccc3nccnc23)cc1,"inconclusive [inhibitor, full curve]",
Cc1nc2scc(-c3ccc(C(C)C)cc3)c2c(=O)n1N,"inconclusive [inhibitor, partial curve]",
O=c1c2ccccc2[nH]c(=S)n1-c1cccc(S(=O)(=O)N2CCCC2)c1,"inconclusive [inhibitor, single point]",
CCC(CC)C(=O)Nc1c(C(=O)N2CCN(c3ccccc3)CC2)oc2ccccc12,,inactive: -17.2%
CN1CCN(CC(=O)N2N=C(c3cccs3)CC2c2ccco2)CC1 (stereo not given),"inconclusive [inhibitor, single point]",
CCc1ccc2[nH]c(=O)c(CN(CC3CCCO3)C(=S)NCc3ccco3)cc2c1 (stereo not given),"inconclusive [inhibitor, single point]",
O=c1cc(-c2ccccc2)c2ccc(O)c(CN3CCCCC3)c2o1,,inactive: -0.412%

Structure (SMILES),Potency,"activity, negative = inhibition"
Cc1cccc(C)c1-n1nnnc1C1(Nc2ccccc2)CCCCC1,"inconclusive [inhibitor, single point]",
C=CCOc1ccc(C2NC(=S)NC(C)=C2C(=O)c2ccccc2)cc1OC (stereo not given),"inconclusive [inhibitor, partial curve, poor fit]",
c1ccc2c(c1)SCc1c-2[nH]c2ccccc12,active: 10 µM,
CCn1cc(C2=NC(C)(C)CO2)c2ccccc21,"inconclusive [inhibitor, single point]",
O=C(NC(=S)Nc1ccccc1N1CCOCC1)c1cccc([N+](=O)[O-])c1,active: 3.98 µM,
Cc1ccc(/C=N/Nc2nc(N3CCCCC3)nc(N3CCCCC3)n2)o1,"inconclusive [inhibitor, single point]",
O=C(Cn1cncn1)N/N=C/c1ccc(Cl)cc1,,inactive: -6.24%
Cc1cccc(CSc2nc(N)c(C#N)c(-c3cccs3)c2C#N)c1,"inconclusive [inhibitor, single point]",
Cc1cccc(C)c1OCC(=O)OC/C(O)=C(\C#N)c1nc2ccccc2[nH]1,active: 17.8 µM,
N#CC1=C(N)Oc2n[nH]c(-c3cccs3)c2C1C1CCCCC1 (stereo not given),"inconclusive [inhibitor, single point]",
O=C(CNC(=O)c1nc[nH]c1C(=O)N1CCc2ccccc2C1)OCc1ccccc1,"inconclusive [inhibitor, single point]",
COc1ccc(NC(=S)NCC(c2ccco2)N2CCCC2)cc1 (stereo not given),,inactive: -6.43%
Cc1cc(/C=C2/SC(=O)N(CC(=O)N3CCOCC3)C2=O)c(C)n1-c1ccccc1F,"inconclusive [inhibitor, single point]",
C=CCn1c(=O)[nH]c2cc(C(=O)N3CCN(c4ccc(C(C)=O)cc4)CC3)ccc2c1=O,"inconclusive [inhibitor, single point]",
Cc1ccc(O)c(-c2cc(-c3ccccc3[N+](=O)[O-])[nH]n2)c1,"inconclusive [inhibitor, single point]",
Cc1[nH]n(-c2ccccc2)c(=O)c1/C=N/NC(=O)C(C)C,active: 3.16 µM,
CC(C)[C@H](NC(=O)c1ccccc1)C(=O)OCC(=O)N1CCCc2ccccc21,"inconclusive [inhibitor, single point]",
Cc1nc2ccccc2n1C1CC(=O)N(Cc2ccccc2)C1=O (stereo not given),active: 6.31 µM,
COC(=O)CC1C(=O)NCCN1C(=O)CSc1nc2ccccc2c(=O)n1CC(C)C (stereo not given),"inconclusive [inhibitor, single point]",
O=C(NNC(=S)NC1CCCCC1)c1sc2ccccc2c1Cl,active: 12.6 µM,
O=C(COc1ccc(S(=O)(=O)NC2CCCCC2)cc1Cl)NCC1CCCO1 (stereo not given),"inconclusive [inhibitor, single point]",
CC(C)(C)c1ccc(C(=O)N2CCC(C(=O)NCC3CCCO3)CC2)cc1 (stereo not given),,inactive: 12%
Cc1nc(C(C)NC(=O)c2cc(COc3ccc(C)c(C)c3)on2)c(C)s1 (stereo not given),"inconclusive [activator, full curve, poor fit]",
COc1cc(SC)ccc1C(=O)Nc1ccc(Cl)cn1,active: 8.91 µM,
OCCNCc1ccc(OCc2ccc(Cl)cc2Cl)cc1,,inactive: -2.08% [at 10 µM]
